The source of these data is PMC9911399, “Two distinct binding modes provide the RNA-binding protein RbFox with extraordinary sequence specificity”.

Substitutions are numbered along the chain they refer to; changes in the protein carry UniProt numbers. The list shows a part of the results.

T1: RBFOX1 RRM (Homo sapiens, UniProt Q9NWB1 109-208)
T1 sequence: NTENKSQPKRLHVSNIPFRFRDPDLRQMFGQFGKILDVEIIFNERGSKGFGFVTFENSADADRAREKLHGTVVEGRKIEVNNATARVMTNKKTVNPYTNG

B1: CUCUAAC (DNA:RNA)
RNA: GGGAGACCGGAAUUCAGAUUGUCCCUCUAACUUAAAUCCCGUCGUAGCCACCA
DNA 1: CAATCTGAATTCCGGTCTCCC
DNA 2: TGGTGGCTACGACGGGATT
B2: UGCGUUA (DNA:RNA)
RNA: B1 RNA with C25U, U26G, U28G, A29U, A30U, C31A
DNA 1: CAATCTGAATTCCGGTCTCCC
DNA 2: TGGTGGCTACGACGGGATT
B3: UUUCACG (DNA:RNA)
RNA: B1 RNA with C25U, C27U, U28C, A30C, C31G
DNA 1: CAATCTGAATTCCGGTCTCCC
DNA 2: TGGTGGCTACGACGGGATT
B4: UACCCGU (DNA:RNA)
RNA: B1 RNA with C25U, U26A, U28C, A29C, A30G, C31U
DNA 1: CAATCTGAATTCCGGTCTCCC
DNA 2: TGGTGGCTACGACGGGATT
B5: AUAUUGC (DNA:RNA)
RNA: B1 RNA with C25A, C27A, A29U, A30G
DNA 1: CAATCTGAATTCCGGTCTCCC
DNA 2: TGGTGGCTACGACGGGATT
B6: AUCUAGU (DNA:RNA)
RNA: B1 RNA with C25A, A30G, C31U
DNA 1: CAATCTGAATTCCGGTCTCCC
DNA 2: TGGTGGCTACGACGGGATT
B7: CCCAGAG (DNA:RNA)
RNA: B1 RNA with U26C, U28A, A29G, C31G
DNA 1: CAATCTGAATTCCGGTCTCCC
DNA 2: TGGTGGCTACGACGGGATT
B8: GGUUAUC (DNA:RNA)
RNA: B1 RNA with C25G, U26G, C27U, A30U
DNA 1: CAATCTGAATTCCGGTCTCCC
DNA 2: TGGTGGCTACGACGGGATT
B9: GCAGCUU (DNA:RNA)
RNA: GGGAGACCGGAAUUCAGAUUGUCCGCAGCUUUUAAAUCCCGUCGUAGCCACCA
DNA 1: CAATCTGAATTCCGGTCTCCC
DNA 2: TGGTGGCTACGACGGGATT
B10: GUGUAGU (DNA:RNA)
RNA: B1 RNA with C25G, C27G, A30G, C31U
DNA 1: CAATCTGAATTCCGGTCTCCC
DNA 2: TGGTGGCTACGACGGGATT
B11: AACCUAU (DNA:RNA)
RNA: B1 RNA with C25A, U26A, U28C, A29U, C31U
DNA 1: CAATCTGAATTCCGGTCTCCC
DNA 2: TGGTGGCTACGACGGGATT
B12: ACCCUCU (DNA:RNA)
RNA: B9 RNA with G25A, A27C, G28C, C29U, U30C
DNA 1: CAATCTGAATTCCGGTCTCCC
DNA 2: TGGTGGCTACGACGGGATT
B13: UGCAUAU (DNA:RNA)
RNA: B1 RNA with C25U, U26G, U28A, A29U, C31U
DNA 1: CAATCTGAATTCCGGTCTCCC
DNA 2: TGGTGGCTACGACGGGATT
B14: UGGUAUA (DNA:RNA)
RNA: B1 RNA with C25U, U26G, C27G, A30U, C31A
DNA 1: CAATCTGAATTCCGGTCTCCC
DNA 2: TGGTGGCTACGACGGGATT
B15: UAACAGC (DNA:RNA)
RNA: B1 RNA with C25U, U26A, C27A, U28C, A30G
DNA 1: CAATCTGAATTCCGGTCTCCC
DNA 2: TGGTGGCTACGACGGGATT
B16: GGUGUUA (DNA:RNA)
RNA: B9 RNA with C26G, A27U, C29U, U31A
DNA 1: CAATCTGAATTCCGGTCTCCC
DNA 2: TGGTGGCTACGACGGGATT
B17: ACGCGAA (DNA:RNA)
RNA: B1 RNA with C25A, U26C, C27G, U28C, A29G, C31A
DNA 1: CAATCTGAATTCCGGTCTCCC
DNA 2: TGGTGGCTACGACGGGATT
B18: UAGAAGA (DNA:RNA)
RNA: B1 RNA with C25U, U26A, C27G, U28A, A30G, C31A
DNA 1: CAATCTGAATTCCGGTCTCCC
DNA 2: TGGTGGCTACGACGGGATT
B19: GUACAUU (DNA:RNA)
RNA: B9 RNA with C26U, G28C, C29A
DNA 1: CAATCTGAATTCCGGTCTCCC
DNA 2: TGGTGGCTACGACGGGATT
B20: CCGAAUC (DNA:RNA)
RNA: B1 RNA with U26C, C27G, U28A, A30U
DNA 1: CAATCTGAATTCCGGTCTCCC
DNA 2: TGGTGGCTACGACGGGATT
B21: AGUGCUA (DNA:RNA)
RNA: B9 RNA with G25A, C26G, A27U, U31A
DNA 1: CAATCTGAATTCCGGTCTCCC
DNA 2: TGGTGGCTACGACGGGATT
B22: GGACUUU (DNA:RNA)
RNA: B9 RNA with C26G, G28C, C29U
DNA 1: CAATCTGAATTCCGGTCTCCC
DNA 2: TGGTGGCTACGACGGGATT
B23: GACACGG (DNA:RNA)
RNA: B9 RNA with C26A, A27C, G28A, U30G, U31G
DNA 1: CAATCTGAATTCCGGTCTCCC
DNA 2: TGGTGGCTACGACGGGATT
B24: AGACUUC (DNA:RNA)
RNA: B9 RNA with G25A, C26G, G28C, C29U, U31C
DNA 1: CAATCTGAATTCCGGTCTCCC
DNA 2: TGGTGGCTACGACGGGATT
B25: GUGCGGC (DNA:RNA)
RNA: B1 RNA with C25G, C27G, U28C, A29G, A30G
DNA 1: CAATCTGAATTCCGGTCTCCC
DNA 2: TGGTGGCTACGACGGGATT
B26: UCAUUUU (DNA:RNA)
RNA: B9 RNA with G25U, G28U, C29U
DNA 1: CAATCTGAATTCCGGTCTCCC
DNA 2: TGGTGGCTACGACGGGATT
B27: UCGAAGC (DNA:RNA)
RNA: B1 RNA with C25U, U26C, C27G, U28A, A30G
DNA 1: CAATCTGAATTCCGGTCTCCC
DNA 2: TGGTGGCTACGACGGGATT
B28: CCACUCC (DNA:RNA)
RNA: B1 RNA with U26C, C27A, U28C, A29U, A30C
DNA 1: CAATCTGAATTCCGGTCTCCC
DNA 2: TGGTGGCTACGACGGGATT
B29: AGCAAGA (DNA:RNA)
RNA: B1 RNA with C25A, U26G, U28A, A30G, C31A
DNA 1: CAATCTGAATTCCGGTCTCCC
DNA 2: TGGTGGCTACGACGGGATT
B30: CCUCCGU (DNA:RNA)
RNA: B9 RNA with G25C, A27U, G28C, U30G
DNA 1: CAATCTGAATTCCGGTCTCCC
DNA 2: TGGTGGCTACGACGGGATT
B31: ACCAAAU (DNA:RNA)
RNA: B1 RNA with C25A, U26C, U28A, C31U
DNA 1: CAATCTGAATTCCGGTCTCCC
DNA 2: TGGTGGCTACGACGGGATT

This assay has as its target T1, RBFOX1 RRM. Description: EMSA; HiTS-Eq, 1 nM pool, 10 min; buffer printed only for the single-RNA assays: 10 mM Tris pH 7.5, 150 mM NaCl, 3.4 mM EDTA, 0.001% NP-40, 30 C. The note with it: tags: His6 N-terminal (pET28a); label: 5' 32P. The method in brief: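 These values rest on relative association constants, computed from read-count changes of each RNA species versus the control reaction and normalised to the cognate motif. Reads came from free RNA recovered by 8% native PAGE after purified RbFox RRM (wild type or mutant) at increasing concentrations was equilibrated for 10 min in 50 µL with 1 nM of a 5′-radiolabelled pool with 7 randomized nucleotides and DNA-annealed flanks.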
(A gel shift assay detects complexes by their altered migration in electrophoresis.)
On to B1, for which the binding signal was 0.00191 KA relative to UGCAUGU.
The result for B2 reads 0.0175 KA relative to UGCAUGU; that for B3, 0.0119 KA relative to UGCAUGU.
For the molecule B4, the binding signal was 0.004 KA relative to UGCAUGU.
With B5, the binding signal was 0.00731 KA relative to UGCAUGU.
Next, B6: 0.00514 KA relative to UGCAUGU; B7: 0.0137 KA relative to UGCAUGU.
On to B8, for which the binding signal is 0.00774 KA relative to UGCAUGU.
Next, B9: 0.013 KA relative to UGCAUGU; B10: 0.0123 KA relative to UGCAUGU; B11: 0.000214 KA relative to UGCAUGU.
Next, B12: 0.00404 KA relative to UGCAUGU; B13: 0.0115 KA relative to UGCAUGU.
Next, B14: 0.0103 KA relative to UGCAUGU; B15: 0.00375 KA relative to UGCAUGU.
Turning to B16, the binding signal is 0.0131 KA relative to UGCAUGU.
The result for B17 reads 0.00567 KA relative to UGCAUGU; that for B18, 0.00721 KA relative to UGCAUGU.
Next, B19: 0.00424 KA relative to UGCAUGU; B20: 0.00768 KA relative to UGCAUGU; B21: 0.00977 KA relative to UGCAUGU.
Next, B22: 0.0238 KA relative to UGCAUGU.
With B23, the binding signal is 0.0123 KA relative to UGCAUGU.
Next, B24: 0.00804 KA relative to UGCAUGU; B25: 0.0141 KA relative to UGCAUGU.
Next, B26: 0.00619 KA relative to UGCAUGU.
The result for B27 reads 0.0119 KA relative to UGCAUGU; that for B28, 0.0026 KA relative to UGCAUGU; that for B29, 0.00998 KA relative to UGCAUGU.
In the case of B30, the binding signal is 0.00636 KA relative to UGCAUGU.
With B31, the binding signal was 0.000529 KA relative to UGCAUGU.
